Assay results: PubChem BioAssay AID1508624 (National Center for Advancing Translational Sciences (NCATS), 2021)
In all, about 48,000 compounds went through this assay and about 120 (0.25%) were called active. Roughly 4% stayed inconclusive and do not appear here. The call rests on the fitted dose curve; in most records, active means well fitted activation curve with a large enough effect; inconclusive means small, poorly fitted or top-dose-only effect, or another doubt; inactive means no such curve, though single readings can be large or run the other way. The list shows a part of the results.

Assay: Primary qHTS for Identification of Small Molecule Activators of Huntingtin-Antisense Promoter Activity; further: nearly all actives have a fitted effect of over 55% in size
Conditions: HEK293 HTT-AS promoter firefly luciferase reporter, 24 h; series mostly up to 57.5 µM; activity change, positive = activation: at the top concentration
Method in brief: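 Luminescence was read after Dual-Glo reagent and a 10 min room-temperature incubation. Values were normalized to vehicle (0% activity) and zero RLU (-100% activity). Reporter HEK293 cells had been exposed to compounds (up to 57.5 uM final) for 24 h.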

Compound | activity change, positive = activation
Cc1ccc(Cl)cc1N1CCN(C(=O)c2nn(C)c3c2CS(=O)(=O)c2ccccc2-3)CC1 | inactive: -30.1%
Cc1ccc(Cl)cc1NC(=O)c1cc(CN2CCCC2)on1 | inactive: 5.08%
COc1ccc(CCNC(=O)CCc2cn(Cc3ccc(F)cc3)c3ccccc23)cc1OC | inactive: -40.9%
Cc1cccc(N2CCN(C(=O)c3cccn3-c3nnc(N4CCCCC4)s3)CC2)c1C | inactive: -32.8%
CCc1ccc(NC(=O)c2ccc(NS(=O)(=O)c3c(C)noc3C)cc2)cc1 | inactive: -27.1%
CCc1cccc(C)c1NC(=O)c1cc(S(=O)(=O)N2CCCCCC2)cn1C | inactive: -23.5%
O=C(NC1CC1)c1ccc(Cn2c(SCc3ccc(F)cc3)nc3cccnc32)cc1 | inactive: 9.88%
COc1ccc(-c2cc(C(F)(F)F)nc(SCCC(=O)Nc3cccc(OC)c3)n2)cc1 | inactive: -26.2%
COc1ccccc1N1CCN(S(=O)(=O)CCNC(=O)COc2ccccc2F)CC1 | inactive: -13.4%
CC(=O)OCC(=O)[C@@]12N=C(C)O[C@H]1C[C@H]1[C@@H]3CCC4=CC(=O)C=C[C@]4(C)[C@@H]3[C@@H](O)C[C@@]12C | inactive: -93.3%
O=C(CCCn1c(=O)c2sccc2n(Cc2ccc(Cl)cc2)c1=O)NCc1ccc2c(c1)OCO2 | inactive: -23.6%
N#CC(=C1Nc2ccccc2S1)c1ccnc(OCc2ccc(CN3CCOCC3)cc2)n1 | inactive: -45.7%
CCOC(=O)c1ccccc1NC(=O)c1cc2c(s1)-c1ccccc1SC2 | inactive: -25.2%
CC1=C(c2ccc(Cl)cc2)S(=O)(=O)N=C1N1CCC(C(=O)NCCc2ccco2)CC1 | inactive: -16.8%
COc1ccc(Br)cc1CNC(=O)CCc1cn(Cc2ccc(C)cc2)c2ccccc12 | inactive: -18.7%
Cc1scc(CN2CCN(c3ccc(F)cc3)CC2)c1C | inactive: -5.87%
COC(=O)c1sccc1S(=O)(=O)N1CCN(c2ccc(Cl)cc2)CC1 | inactive: -29.3%
CC(C)c1ccc(NC(=O)CN2C(=O)CSc3ccc(S(=O)(=O)N4CCCC4)cc32)cc1 | inactive: -19.5%
CC(C)CC(NC(=O)C1CCCCC1)C(=O)Nc1cccc(C(F)(F)F)c1 (stereo not drawn) | inactive: -7.68%
Cc1ccc(NC(=O)c2sc3nc(-c4ccncc4)ccc3c2N)cc1 | inactive: 26.6%
Cc1ccc(CNC(=O)CCc2nnc3n(C)c(=O)c4sccc4n23)cc1 | inactive: -21.9%
CCOc1ccc(S(=O)(=O)c2c(C(=O)c3ccc(C)c(C)c3)cnc3ccccc23)cc1 | inactive: -10.6%
COc1cc(NC(=O)C(NS(=O)(=O)c2ccc3c(c2)CCCC(=O)N3)C(C)C)cc(OC)c1 (stereo not drawn) | inactive: -2.15%
CC(=O)Nc1ccc(Nc2c(CCC(C)C)c(C)c(C#N)c3nc4ccccc4n23)cc1 | inactive: 4.38% [at 11.5 µM, percent change from vehicle, -100% = no light]

Compound | activity change, positive = activation
CC(=O)N[C@@H](CC(C)C)C(=O)O | inactive: -2.22%
Cc1ccccc1C(=O)Nc1nnc(S(=O)(=O)N(C)c2ccc(Cl)cc2)s1 | inactive: -39%
COC(=O)c1sccc1S(=O)(=O)N(CC(=O)Nc1ccc(C)c(F)c1)c1ccc(C)c(C)c1 | inactive: -35.1%
Cc1ccccc1Cn1c(=O)n(CCc2ccccc2)c(=O)c2sc3ccccc3c21 | inactive: 27.4%
O=C(COc1ccc(F)cc1)Nc1ccc(S(=O)(=O)N(Cc2ccccc2)c2ccccc2)cc1 | inactive: 4.08%
CCc1ccc(CNC(=O)c2sc3nc[nH]c(=O)c3c2C)cc1 | inactive: -7.88%
COc1ccc(-c2cc(C(C)=O)c(C)n2CCC(=O)Nc2ccc(C)c(Cl)c2)cc1 | inactive: -34.3%
CCCNc1ncnc2c1c(-c1ccccc1)cn2-c1ccc(OCC)cc1 | inactive: -13.2%
O=c1cc(CSc2ccccc2)[nH]c2ccc(F)cc12 | inactive: -33.9%
COc1ccc(NC(=O)CCn2c(-c3ccc(F)cc3)cc(C(C)=O)c2C)c(OC)c1 | inactive: -18.6%
Cc1ccc(NC(=O)c2c(C)oc3ccc(O)c(CN(C)Cc4ccccc4)c23)c(C)c1 | inactive: -24.6%
CCc1ccc(Nc2nnc(-c3cc4cc(OC)ccc4oc3=O)s2)cc1 | inactive: -12.9%
COc1ccc(OC)c(CNc2ncnc3c2nc2n3CCCC2)c1 | inactive: -19.7%
CCN(C(=O)Cc1c(C(=O)O)c(C)cn1C)c1cccc(Cl)c1 | inactive: -11%
CCc1c(C)nc(SCc2nc(-c3ccccc3C)no2)[nH]c1=O | inactive: -38.5%
Cc1nc(N2CCCC2)ncc1C(=O)NCc1ccc(F)cc1 | inactive: -3.68%
Cc1cn2c(=O)c(S(=O)(=O)Nc3ccc(N4CCOCC4)cc3)c(C)nc2s1 | inactive: -7.23%
COCCNC(=O)c1cnn(-c2cccc(C)c2)c1-n1cccc1 | inactive: 4.4%
COc1cc2ncc3c(-c4ccccc4)nn(CC(=O)NC4CCCCC4)c3c2cc1OC | inactive: -15.7%
CC1CCN(S(=O)(=O)c2cc(C(=O)NCc3ccccc3)n(C)c2)CC1 | inactive: -14.6%
COc1ccc(C2=C(C)C(N3CCN(c4ccc(OC)cc4)CC3)=NS2(=O)=O)cc1 | inactive: -13.9%
CN(C(=O)c1ccc2c(c1)N(Cc1ccc(F)cc1)C(=O)c1ccccc1S2(=O)=O)C1CCCCC1 | inactive: -28.9%
COc1ccc(C(=O)NNc2ncnc3c2cnn3-c2ccc(C)cc2C)cc1 | inactive: -15.3%
CCC(CC)C(=O)Nc1nnc(S(=O)(=O)N2c3ccccc3CC2C)s1 (stereo not drawn) | inactive: -28.2%
